Sequences with one replicate were seen in a single cluster, so their values are uncertain.
System: ATP
Experiment: switch fluorescence ratio, 500 uM ATP over buffer (Cy3 cluster intensity, sum of 5 cycles each) (fold (ratio)); higher = stronger signal-on switching upon ATP binding; sequences stand for … in TCGTCGGCAGCGTCAGATGTGTATAAGAGACAGTTTTTTTTTTTTTTTTTTTTTTTTT…TC
Details: aptamer strand: ATP DNA aptamer (quencher-CACCTGGGGGAGTATTGCGGAGGAAGG + anchor), 100 nM annealed; ATP concentration: 500 uM; one replicate
Outline: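 Cy3-labelled switching-strand clusters on a modified Illumina MiSeq flow-cell were annealed to 100 nM quencher-labelled ATP aptamer, imaged in selection buffer, then imaged after 15 min with 500 uM ATP at 22 °C. Five buffer/ATP cycles ran, with NaOH stripping and re-annealing between them. The fluorescence ratio is summed target-cycle over summed buffer-cycle Cy3 intensity per cluster, averaged per switch-domain sequence. Clusters outside 100-1000 RFU were excluded.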
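Note: ATP exposure 15 min at 22 °C before imaging.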

Sequence	switch fluorescence ratio
CCTGGGTGCC	1.13
TGGCTCGTAC	1.01
GGCCTGGTAT	1
GTACGCACCC	1.71
AAAATTGA	0.975
CCTTCTTCAT	1.03
GACATTAGGT	1
AGAAACTAAA	0.952
AACCTTGGCG	0.987
TTGTGATATG	0.997
TCATCGTGTC	0.968
GCTTATCGCA	1.05
GGGGCTTCGC	0.915
TCGTCGTACT	1.04
GAATGTTGAC	1.01
CAGGGAATTT	0.988
ACACCGGTGC	1.07
AATCCCGCCT	1.07
CCTGAACCTG	1.12
TAAAGCGAAG	0.98
TTAAGAAATC	1.06
CAAAGAACGT	1.11
CGTAGAACAT	0.966

Sequence	switch fluorescence ratio
GTTGTTCACC	1.04
TAAGACGAAA	1.02
TTCGTACGCG	0.954
GGGCAGCTTC	1.05
CTAGTCGGAA	1.03
AATGTGTGCG	0.973
GAGGCGTAC	1.51
AAATACCAAC	1.18
AATGTATTCC	1.07
GTTTTGTGAC	1.05
CGTTTAGTTT	1
CCGTACGTCG	0.959
GTATAAATCC	1.01
TCAGGCCGCG	1.03
TGGAGATCGC	1.04
TTTGCGGTGT	1.06
CTCCTTAAGG	1.03
GGTTCTCGGG	0.977
TGGAGATGTC	0.915
GCGCTATGTC	1.32
TACGAGTTGG	1.05
GTCTAAGATC	1.04
ATACGACTAG	0.963

Sequence	switch fluorescence ratio
CAGTGGCTTA	1.03
AGGCTAGGGT	0.967
GCGCGAGGCC	0.988
TAGTTTGTT	0.95
GCGGGGATCG	0.968
TTAGTCAGAG	1.04
GAGGCGCGTC	1.02
GCGAGTCTGT	1.04
GAGCACCGGT	1.07
GTGTATACAG	0.968
GAAACGTGGA	1.09
CCCCGAACGA	1.21
CTCAATGTG	1
AATCATGAGC	1.06
GTGAATCATT	1.01
AGTGAAAGCG	1.06
TGGGCAAACG	1.01
GGCTTCGCCA	1.12
ATCAACGACG	1.05
TGGTGGAGGC	1.06
GCCTATAGCA	0.959
TGATAAAGGC	1.07
ACCGACTTCT	0.982

Sequence	switch fluorescence ratio
GGGAGCAGAG	0.968
ACTTATTGCG	0.938
GATCATGCGC	1.02
TTTGACATAT	0.994
CAGCAAATCT	1.48
CTTCGAAAAT	1.12
GGTCGGTCTT	0.971
GGCCAGGGCG	1
TCCGCATTTT	4.56
TACAGCGCTT	0.982
GCCGTCGGTA	0.985
CATCACAAAG	1.02
TTCAGCTCAA	1.02
AAGAGGAACG	1.11
AAGATGGGG	1.03
GCGCCTATCG	0.966
CAGATTCCAG	1.02
CAAAAGGGAC	1.04
ACCTGTAGGG	1.08
GCGTGAAGCA	1.05
CTCTGTGTCA	1.01
CTATTGCGGC	0.972
TTGGCAGGT	1.03

Sequence	switch fluorescence ratio
CATTGCTGGG	0.99
ATGCCTCCCG	1.16
TGGGTGTCCT	0.967
GAGGTGGAAG	1.01
ATAAATCACG	1.13
CGTAGAAATA	1.07
GCCGCGCC	1.14
CAGCTCAATT	1.01
TCTCTGAGCT	0.996
AGGGATATGA	1.18
TAAAATCAAA	0.96
ATGTTCAAA	0.998
CAAGGTTTGG	0.973
ATTGGTTTAG	0.997
CAATTCGCCC	1.15
TTTTACGTGT	1.04
GAGGCGAAGA	0.999
AGAAGTTTGA	1.06
ACTTAAGGCC	1.09
GGGCCACATA	1.03
CCTTATGGGT	0.961
CTTAATCGTA	0.95
TATTTCTCG	0.978

Sequence	switch fluorescence ratio
GACAGTAAGA	1.08
TCACCTTGCT	1.34
GAGCACAG	1.1
AAATGGTATG	0.965
GTGTTGCTTT	1.01
GGCCTCATAT	0.994
GTCAGATAAT	0.96
CGATAGGGAC	1.03
AAGACGGGCC	0.993
ATTCAAAAGT	1.05
TAGAGGCTTT	1
ATTGTTCTCA	0.939
AAAGTGCA	0.988
AAATGCGACG	1.02
TATTGAGCAC	1.04
GTGGCTCCGT	0.988
AGTGCTTTGC	1.01
AAAGGCACAT	1
CATGAAGTCT	1.04
GCTTCGGAAA	1.02
ACAGTTATTT	0.988
CCTTGTAACC	1.15
TGTGAAAG	0.982

Sequence	switch fluorescence ratio
ATGCAGTTCG	1.02
GGAGCACTT	1.14
AAAATGAATC	0.978
GTGCAGGGCG	0.97
CTGGTGGCGC	0.942
CCAATGGTG	1.28
CAGAAAAGTT	0.973
TGCCACGGTT	0.99
CGATGGTGCG	1.03
TCGAGGTGGA	0.945
ATATTTGTAC	1.01
AACGTGCAGC	1.01
AACACAGACG	1.15
AGCTGAAATT	1.08
ATGTACGACG	0.968
AGTCCCGGGT	0.917
AGGGAGTGGC	1.06
AGGCGGTTGT	0.993
GCACCTTGAT	0.983

From the supplement of paper PMC10126150
